{"source": "PubChem BioAssay AID463173", "about": "(ICCB-Longwood Screening Facility, Harvard Medical School, 2010)", "note": "In all, about 52,000 compounds went through this assay and about 1,700 (3.3%) were called active. Cut-off read from the data, not from the text of the source: active = survival mostly below about 52% (no sharp cut-off); inactive = mostly above about 56%. Some of the results follow."}
{"test_system": "Wild type", "test": "S. aureus survival, RN4220 and DeltatarO strains – OD600, teichoic acid synthesis inhibitors, primary screen (AID 463173)", "settings": "S. aureus RN4220 wild type/DeltatarO growth, OD600, 18 h, active compounds read low, screened at 18.75 µg/mL (by protocol)"}
{"smiles": "CCn1cc(C(=O)OCC(=O)Nc2cc(Cl)ccc2C)c(=O)c2ccc(C)nc21", "survival": "inactive: 68%"}
{"smiles": "Cc1ccc(NC(=O)CN2C(=O)C(c3ccc(F)cc3)=NC23CCCCCC3)c(C)c1", "survival": "inactive: 99%"}
{"smiles": "CCCCOc1ccc(C2C(=O)N(C3CCCCC3)CC(=O)N2C2CCCCC2)cc1", "note": "(stereo not drawn)", "survival": "inactive: 73%"}
{"smiles": "CCN(Cc1ccccc1)C(c1ccccn1)c1nnnn1C1CCCCC1", "note": "(stereo not drawn)", "survival": "inactive: 105%"}
{"smiles": "Nc1nonc1-c1nc2ccccc2n1CCn1c(-c2nonc2N)nc2ccccc21", "survival": "inactive: 105%"}
{"smiles": "CCc1cccc(NC(=O)Cn2c(=O)n(CCCCCC(=O)NCc3ccc(F)cc3)c(=O)c3sccc32)c1", "survival": "inactive: 79%"}
{"smiles": "CCOC(=O)c1ccccc1NC(=O)CN(c1ccccc1)S(=O)(=O)c1ccc(OCC)cc1", "survival": "inactive: 85%"}
{"smiles": "Cc1cccc(NC(=O)Nc2cccs2)c1C", "survival": "inactive: 76%"}
{"smiles": "CCn1nc(C)c2c(-c3ccccc3)cc(=O)n(C(C)C(=O)Nc3ccc(OC)c(OC)c3)c21", "note": "(stereo not drawn)", "survival": "inactive: 59%"}
{"smiles": "COc1ccc(C2C=C(c3ccccc3)Nc3nc(NC(C)=O)nn32)cc1", "note": "(stereo not drawn)", "survival": "inactive: 85%"}
{"smiles": "Cc1ccc(C)c(NC(=O)Cn2ncc3c(C)n(Cc4ccc(F)cc4)c(C)c3c2=O)c1", "survival": "inactive: 87%"}
{"smiles": "COc1ccc(-c2cn3c(c2C)-c2ccc(C)n2CC3)cc1", "survival": "inactive: 115%"}
{"smiles": "CCCCCCc1c(C)c2c(cc(C)c3c(C)coc32)oc1=O", "survival": "inactive: 95%"}
{"smiles": "CC1=C(c2ccc(C)c(C)c2)S(=O)(=O)N(Cc2ccc(C(=O)NCc3ccccc3F)cc2)C1=O", "survival": "inactive: 92%"}
{"smiles": "COc1ccc(-c2cc(C(F)(F)F)n3nc(C)c(-c4ccccc4)c3n2)cc1OC", "survival": "inactive: 78%"}
{"smiles": "O=C(CCc1cn(Cc2ccc(F)cc2)c2ccccc12)NC1CCCCC1", "survival": "inactive: 90%"}
{"smiles": "CCOc1ccc(NC(=O)NCCN2CCN(c3cc(Cl)ccc3C)CC2)cc1", "survival": "inactive: 53%"}
{"smiles": "O=C(NCCc1ccccc1)c1c[nH]c2ccc(S(=O)(=O)Nc3ccc(F)cc3F)cc2c1=O", "survival": "inactive: 75%"}
{"smiles": "CCCC(=O)Nc1cc2nn(-c3ccc(OC)cc3)nc2cc1C", "survival": "inactive: 73%"}
{"smiles": "Nc1nnc(CC(=O)N2CCCC2)s1", "survival": "inactive: 116%"}
{"smiles": "Cc1ccc(C)c(OCC(=O)Nc2sc3c(c2C#N)CCCC3)c1C", "survival": "inactive: 60%"}
{"smiles": "CCC1CCCCN1CCCNC(=O)c1ccc2c(c1)c(C)c(C)n2CC", "note": "(stereo not drawn)", "survival": "inactive: 68%"}
{"smiles": "CCOC(=O)c1c(Nc2ccc(C)c(C)c2)nnc(-c2ccccc2)c1-c1ccccc1", "survival": "active: 0%"}
{"smiles": "COc1ccc(CNC(=O)CN2N=C(c3ccc(Cl)cc3)CCC2=O)cc1", "survival": "inactive: 123%"}
{"smiles": "Cc1cc(C)c(NC(=O)Cn2c(=O)n(CCC(C)C)c(=O)c3cccnc32)c(C)c1", "survival": "inactive: 83%"}
{"smiles": "COc1ccc(-c2nn(C)c3sc(C(=O)NCCN(C)C)cc23)cc1OC", "survival": "inactive: 82%"}
{"smiles": "COc1cccc(NC(=O)C2CCCN(c3ncnc4onc(-c5ccc(F)cc5)c34)C2)c1", "note": "(stereo not drawn)", "survival": "inactive: 97%"}
{"smiles": "O=C(O)Cn1ccc(=O)[nH]c1=O", "survival": "inactive: 109%"}
{"smiles": "CCc1ccc(C(=O)c2cn(CC(=O)NCCc3ccccc3)c3nc(C)ccc3c2=O)cc1", "survival": "inactive: 74%"}
{"smiles": "COc1ccc(C(=O)CC2(O)C(=O)N(Cc3ccccc3)c3ccc(Br)cc32)cc1", "note": "(stereo not drawn)", "survival": "inactive: 57%"}
{"smiles": "Cc1ccc(N2CC(NC(=O)CCCc3ccccc3)CC2=O)cc1", "note": "(stereo not drawn)", "survival": "inactive: 53%"}
{"smiles": "COc1ccc(Cn2c(SCc3ccc(C(=O)NCc4ccc(C)cc4)cc3)nc3cccnc32)cc1", "survival": "inactive: 85%"}
{"smiles": "O=C(NCCc1ccccc1)c1ccc2c(c1)N(Cc1ccc(Cl)cc1)C(=O)c1ccccc1S2(=O)=O", "survival": "inactive: 102%"}
{"smiles": "O=C(NCCSc1c[nH]c2ccccc12)c1ccc(Cl)cc1", "survival": "inactive: 51%"}
{"smiles": "Cc1ccc(C2=Nc3ccccc3N=C(c3ccc(F)cc3)C2)c(O)c1", "survival": "inactive: 83%"}
{"smiles": "CCN(c1ccccc1C)S(=O)(=O)c1nnc(NC(=O)c2ccc(OC)c(OC)c2)s1", "survival": "inactive: 42%"}
{"smiles": "CCc1nc(SC)ncc1C(=O)NCc1cccc(Br)c1", "survival": "inactive: 113%"}
{"smiles": "COC(=O)Cc1[nH]nc2c1C(c1c[nH]c3ccccc13)C(C#N)=C(N)O2", "note": "(stereo not drawn)", "survival": "inactive: 101%"}
{"smiles": "CCc1ccc2[nH]c(=O)c(CN(Cc3ccco3)Cc3nnnn3Cc3ccccc3)cc2c1", "survival": "inactive: 110%"}
{"smiles": "COc1ccc(CNC(=O)c2ccc(CN3C(=O)C(C)=C(c4ccc(C)cc4)S3(=O)=O)cc2)cc1", "survival": "inactive: 82%"}
{"smiles": "Cc1cc(O)c2c(C)c(CC(=O)NCc3ccccc3Cl)c(=O)oc2c1", "survival": "inactive: 66%"}
{"smiles": "O=C(Cn1nc(Cc2cccnc2)c2ccccc2c1=O)N1CCN(c2ccccc2F)CC1", "survival": "inactive: 74%"}
{"smiles": "Cc1ccc(Cl)cc1N1CCN(c2nc3ccc(C(=O)c4ccccc4)cc3n3cnnc23)CC1", "survival": "active: -6%"}
{"smiles": "CC1=C(C(=O)NCc2cccc(F)c2)C2(CCCCCC2)OC1=O", "survival": "inactive: 65%"}
{"smiles": "Cc1ccc(-n2ncc(C(=O)Nc3ccc4c(c3)OCCO4)c2C2CCN(C(=O)OC(C)(C)C)CC2)cc1C", "survival": "inactive: 82%"}
{"smiles": "O=C(NCCCN=C1NS(=O)(=O)c2ccccc21)c1ccncc1", "survival": "inactive: 111%"}
{"smiles": "COc1ccc(CNC(=O)c2cc(-c3ccc(Br)s3)nc3ccccc23)c(OC)c1", "survival": "inactive: 92%"}
{"smiles": "O=C(NC1CCCC1)c1cc2sccc2n1Cc1ccccc1", "survival": "inactive: 122%"}
{"smiles": "Oc1ccc(N=Cc2ccccc2O)cc1", "survival": "inactive: 84%"}
{"smiles": "COCCN1CCc2nc(SCC(=O)Nc3ccc(C)c(Cl)c3)[nH]c(=O)c2C1", "survival": "inactive: 85%"}
{"smiles": "COc1ccccc1N1CCN(C(=O)Cn2ncc3c2-c2cc(C)ccc2OC3)CC1", "survival": "inactive: 72%"}
{"smiles": "COc1ccc(Nc2nc3ccc(C)cc3nc2-n2nc(C)cc2C)cc1Cl", "survival": "inactive: 77%"}
{"smiles": "CCOC(=O)c1cc2occc2n1CCc1ccccc1", "survival": "inactive: 123%"}
{"smiles": "CCOc1ccccc1CNC(=O)Cn1c(=O)c2cccn2c2ccc(F)cc21", "survival": "inactive: 98%"}
{"smiles": "COc1ccccc1NC(=O)CC1Sc2ccc(C(F)(F)F)cc2NC1=O", "note": "(stereo not drawn)", "survival": "inactive: 95%"}
{"smiles": "CCOC(=O)c1noc2ncn(CC(=O)Nc3ccc(F)cc3Cl)c(=O)c12", "survival": "active: -6%"}
{"smiles": "COc1ccc(-c2onc(C)c2C)cc1S(=O)(=O)NCc1cccs1", "survival": "inactive: 76%"}
{"smiles": "CC1=C(C(=O)OCc2ccc(C)cc2)C(c2ccccc2C(F)(F)F)CC(=O)N1", "note": "(stereo not drawn)", "survival": "inactive: 134%"}
